From article PMC12136788
Positions count from the first letter of the chain named. The list shows a part of the results.

B1: chr4:107545374:107545375:+_ENSMUSG00000028613_ENSMUST00000106731|mus_hu|motif|central (ssRNA)
RNA: GGGAGUUCUACAGUCCGACGAUCUGAUGGAUAGCCACAAAGCAUAAUCAUCUUAUUUACAAAAAACAAAUGCCCCAAAACCGGAAAAAGCCCCCCCAGCAACCAAACAUCUUCUGUAAAUAUAGUUUUUAAAUGAUGAGUAAGCAACAGAGGAUUGAGCAUCA
B2: chr1:107181519:107181520:-_ENSMUSG00000047496_ENSMUST00000058688|mus_mus|motif|central (ssRNA)
RNA: GGGAGUUCUACAGUCCGACGAUCUCACCACUCUGGAUCCCUCUUCUCAAGCUCACAGGGCAUCGAGCAUUCACAAAUGUGCGGAUUUCUGAAUCUGUCACGCGUCCCUUUCACCCCCUUCUGCGUGUUGACAUCAAGUGGAAACAACAGAGGAUUGAGCAUCA
B3: chr5:110835399:110835400:-_ENSG00000164211_ENST00000296632|hu_hu|FALSE|FALSE (ssRNA)
RNA: GGGAGUUCUACAGUCCGACGAUCUGAGAGCCUGUCUCAAAAUUUAAAAAAAAAAAAGUGAAAAUGCCCUCUCUUAGAUAGCUAUUUACUUUAGGAAUAAAACCAAACAUUGUACUAGUGAACCAAAAACAUUUCAAAUUUUUCCAACAGAGGAUUGAGCAUCA
B4: chr6:40197388:40197389:+_ENSMUSG00000057716_ENSMUST00000061740|mus_mus|mus_mus_mus_hu_False|88_98 (ssRNA)
RNA: GGGAGUUCUACAGUCCGACGAUCGAGACACUGGGGUGGAUGGCACCUCAGUUUGGGUGGGUGCUAGCCACUAAGACUGUUAUUUUGGGAUUCAUGGCCUUGAAUAUCAAGAGGGAAAGGAAGAGGAUGGAAAGAGUCAAGAGUCAACAGAGGAUUGAGCAUCA
B5: chr2:63824656:63824657:+_ENSG00000014641_ENST00000394423|hu_hu|motif|central (ssRNA)
RNA: GGGAGUUCUACAGUCCGACGAUCGGUAUUGGCUGGAUUACCCACAACAAUAACCUUAACUGACUUCUUGGCGUAUUUAUCGGAGGCUGCACCCUGGGAUUUGAAGAUUUUCACAUUUGCUUUCAGUAAAUCUUUUCUCUCCAUCAACAGAGGAUUGAGCAUCA
B6: chr12:39756943:39756944:-_ENSG00000139116_ENST00000544797|hu_mus|hu_hu_hu_mus_False|78_78 (ssRNA)
RNA: GGGAGUUCUACAGUCCGACGAUCGGUUUGGCUGUUACCCCCAAGGGAAUCCUGCAAUAGUCUUGUUAGCUUAGAGUCUCUGUAAGGGACAUGGGUGGCUCUCUUGCUCUUGUCCCCCAAGGCGCUGAUUACAUUCCCAAGAGCCAACAGAGGAUUGAGCAUCA
B7: 30185271_30188328_2573_CDS_ENSMUSG00000024827_ENSMUST00000025778|mouse|control|control (ssRNA)
RNA: GGGAGUUCUACAGUCCGACGAUCCAUCUUAAUGUAAGCCCAUGAAAUGGGCAGGAUGGAGCUGGAACCCCACGGGGCUGCACUGACAGUGCCCACGGGCCAGGUGCCUUCAGUUGGCUUUAUGGAAAUGACGGGGUGGCUGGGCAACAGAGGAUUGAGCAUCA
B8: chr6:38652254:38652255:-_ENSG00000124767_ENST00000373365|hu_hu|hu_hu_hu_mus_False|8_108 (ssRNA)
RNA: GGGAGUUCUACAGUCCGACGAUCCGAAAACUUCAUAGCAGGGAAGUCAAGCUUCUGCAGGAGGGUCAGUCCAAGAACCCUCGUAUAAAAAUCCAGGGACUUCUUAGGAUCCUUAAUUCUUAGCAUCGUCUGCUGCAGUAGAAACAACAGAGGAUUGAGCAUCA
B9: chr2:9725471:9725472:-_ENSG00000134308_ENST00000238081|hu_mus|FALSE|FALSE (ssRNA)
RNA: GGGAGUUCUACAGUCCGACGAUCUGAAAAGCAGACUGAGACAGUUUCCAAUUCCACACAAGUAAAUGUUAAGUUGUCUCUAAGCAACUGCAUGAUGAGGGUGCUGUCUUUGUAGGAGUCUUCGUUCAGUGUAUCAAGCUCUGCCAACAGAGGAUUGAGCAUCA
B10: 31079749_31080365_821_CDS_ENSMUSG00000029168_ENSMUST00000114729|mouse|control|control (ssRNA)
RNA: GGGAGUUCUACAGUCCGACGAUCCUCCAUUUCUGCUUUCACCUUGGGUGCCCACCAGGUGAUCCCCACAUGGAGGGCAUAGUCACAGCAGACCUUGGGGUCAGCUAGAGCCCUGCACUUCUCAUAGGCUUCCACGAGGGAGGUCAACAGAGGAUUGAGCAUCA
B11: 32740393_32740513_11099_CDS_ENSG00000115760_ENST00000421745|human|control|control (ssRNA)
RNA: GGGAGUUCUACAGUCCGACGAUCCUUAUUACAUUGUUGUGGGACAUGAUGGCGCCUGAGUUUGUCCUGGGAAAUAUCUAUUGACUGGGCAAUGCUUUCUGAGCUAGAAAUGUGGCUAAAGCAGAAACUAGCCAGACUCCUCACCAACAGAGGAUUGAGCAUCA
B12: chr8:125728745:125728746:-_ENSMUSG00000000743_ENSMUST00000000759|mus_mus|FALSE|FALSE (ssRNA)
RNA: GGGAGUUCUACAGUCCGACGAUCUCCUCACUGUGGAGGGAUGAAGAGCUUGCUGCCAGCUGCCAGAUGUGACUGACUCAGGCUCCCUCUGUUAGCCAGCCAGGCUCUCCCUUGGAGAAGGCUGAAAGCAGCAGCCUUUGUCUACAACAGAGGAUUGAGCAUCA
B13: 112641268_112645010_655_CDS_ENSG00000150593_ENST00000280154|human|control|control (ssRNA)
RNA: GGGAGUUCUACAGUCCGACGAUCCUGGUCAUCAUCAUAGUUAGGAUCUUUCACAUCCACCUCCUCCACAUCAUACACCUGUCCAGGUGUACCCCAGACACCUUUGCCUCCUGCACCACCUUUCUUUGGUAGUCCCCUUCCUUUCAACAGAGGAUUGAGCAUCA
B14: chr8:117878989:117878990:-_ENSG00000164754_ENST00000297338|hu_hu|hu_hu_hu_mus_True|1_8 (ssRNA)
RNA: GGGAGUUCUACAGUCCGACGAUCCCAGAGGCCCUCGUUUACUGAGGACAAAAUGUGCGUAGAACAUUUUUCUUAUUUGCUAUGAAAUAAGAAGAAACCUGGAUCUCGGCGGGGAGCCGGGAGGGGUUGGGUGGCCCGGGGAGGCAACAGAGGAUUGAGCAUCA
B15: chr3:33038425:33038426:-_ENSG00000170266_ENST00000307363|hu_hu|motif|central (ssRNA)
RNA: GGGAGUUCUACAGUCCGACGAUCAGGUGGGGCUUUGGCACUGCAGGGAUGCAGGGAAACCUCAGGUGAAAAUGCACAUCCGGAAUUCCUUUUCCAUUUCCACAUUCCAAUCAGUGAAAUGUGGCAUGACAGGGAGGAUCUGUGCAACAGAGGAUUGAGCAUCA
B16: chr7:65705844:65705845:+_ENSG00000169902_ENST00000304842|hu_mus|hu_hu_hu_mus_False|28_108 (ssRNA)
RNA: GGGAGUUCUACAGUCCGACGAUCAAAAGGAUCUUUAUUACAUAAAUAAGGUGCCGGCUCCCCAUGUUUAACAAUGACCUCCAGAAGGAAGGCUUGCAUGGCAGAAUCCAGCACUUCAUCUGUGACACCCGCCUCAUCCAAGCGCAACAGAGGAUUGAGCAUCA
B17: chr2:175094126:175094127:-_ENSG00000138430_ENST00000344357|hu_mus|motif|central (ssRNA)
RNA: GGGAGUUCUACAGUCCGACGAUCUCUGCUCUCAUUAGGAUCAAUAGUGCAGAAUGGGAAGUUUUCUGCUGAAGCCUGACGGUUGGUUAAUACAUUGAAGAAGGUAGACUUCCCAACAUUUGGCAAUCCAACGAUACCAAUUUUCAACAGAGGAUUGAGCAUCA
B18: chrX:20248820:20248821:+_ENSMUSG00000001924_ENSMUST00000001989|mus_mus|mus_mus_mus_hu_True|78_98 (ssRNA)
RNA: GGGAGUUCUACAGUCCGACGAUCGGCGAAGUCCGUCAUCACAAAGUCAGGUUCUGCCAGUGAUGCUACCAAGGAUUUAAAGCUAAUCUUCUUAGGUACUUUGACCUGACUGACGAUGCCUCCACGGAUGUAGUCGGAGAAGUUCAACAGAGGAUUGAGCAUCA
B19: chr7:65705844:65705845:+_ENSG00000169902_ENST00000304842|hu_mus|hu_hu_hu_mus_False|68_88 (ssRNA)
RNA: B16 RNA with A27C, A36G, U51G, C54U, A72G, G75A, C108U
B20: chr1:213178640:213178641:-_ENSG00000174606_ENST00000366962|hu_mus|FALSE|FALSE (ssRNA)
RNA: GGGAGUUCUACAGUCCGACGAUCAGCUAUGCAGAUGGAUGGAGAGGCAGCGCGUGGGAUCUUGGGCUGCAGGAGUAAAACCAAUCCAAUGUUGUCCCUGUCCAGCAGAGGAAUGUCGCGGCGGCAGAACUCCACUGGGUUCACCAACAGAGGAUUGAGCAUCA
B21: chr1:39494564:39494565:+_ENSG00000168653_ENST00000372967|hu_hu|hu_hu_hu_mus_True|48_48 (ssRNA)
RNA: GGGAGUUCUACAGUCCGACGAUCAUGCAUUCGCCUCAUCGUUUUGUACCGAAGCAAGCACUCUUCGAAGUCAUCGAACUCUAUCUUGCACUCUUUCUUCGCCCGGGUCCCACCGAUCCCGUGUGCACACUCUAUCCACUCUUUCAACAGAGGAUUGAGCAUCA
B22: chr8:29959424:29959425:+_ENSG00000104660_ENST00000321250|hu_mus|FALSE|FALSE (ssRNA)
RNA: GGGAGUUCUACAGUCCGACGAUCGAAGGGCACAUCCAAGCAUCAGGAACAUCAGCCCGAUCGCUCCUCCAAAGGACAAACUAAUUAAAGCUUUGAUGCCCGCCAUGGCGGUGACGUCGCUCCUGGCUCCACGACCCGGGCGGUCAACAGAGGAUUGAGCAUCA

target: T1, UNK ZnF1-3 (human, UniProt Q9C0B0 31-174); assay: nsRBNS (natural sequence RNA bind-n-seq); RBNS binding buffer (assumed for nsRBNS): 25 mM Tris pH 7.5, 150 mM KCl, 3 mM MgCl2, 0.01% Triton X-100, 500 ug/ml BSA, 20 U/ml SUPERase-In, 4 C; UNK is unkempt and MSI1 is Musashi-1; names of the RNAs are library labels; protein concentration not given here; high values mean tight binding
T1 sequence: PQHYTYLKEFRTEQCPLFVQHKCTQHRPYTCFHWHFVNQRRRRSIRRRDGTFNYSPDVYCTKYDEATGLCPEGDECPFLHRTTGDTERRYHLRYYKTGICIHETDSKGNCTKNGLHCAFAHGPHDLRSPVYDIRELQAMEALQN

Row | Binder | binding signal [enrichment R]
1 | B1 | 2.72
2 | B2 | 1.45
3 | B3 | 2.67
4 | B4 | 1.61
5 | B5 | 0.383
6 | B6 | 0.786
7 | B7 | 1.77
8 | B8 | 0.734
9 | B9 | 0.982
10 | B10 | 0.489
11 | B11 | 1.07
12 | B12 | 0.527
13 | B13 | 0.836
14 | B14 | 1.3
15 | B15 | 1.01
16 | B16 | 0.513
17 | B17 | 1.32
18 | B18 | 0.745
19 | B19 | 0.811
20 | B20 | 1.82
21 | B21 | 0.689
22 | B22 | 1.33
